# Reference: the supplement of paper PMC8728848
# The other results are listed elsewhere or left out.
# B1: PFL (Pseudomonas fluorescens) (protein)
# chain: MSKYAVANQWGGSSAPWHPGGTWVLGARDNQNVVAIEIKSGDGGKSFTGTMTYAGEGPIGFKAQRTGQNQYNVENQWGGNDAPWHPGGKWVIGGRDNQNVIALSVTSSDGGKNLSGTNTYANEGPIGFRGQIE
# Experiments:
# Assay in all cases: glycan array binding signal (z-score within array); higher = stronger binding
# Conditions in all cases: glycan notation: IUPAC condensed, linker removed
# [1] = target: Neu5Ac(a2-6)GlcNAc(b1-4)GlcNAc
# Method in brief: (§1)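 From the Consortium for Functional Glycomics database, 3228 arrays were curated, keeping only those whose protein sequence was available. Binding is given as a within-array Z-score averaged across arrays sharing a protein sequence and across linkers. Negative Z-scores can be read as non-binding.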
# [2] = target: Neu5Ac(a2-6)GlcNAc(b1-4)GlcNAc(b1-4)GlcNAc
# Method in brief: as §1
# Neu5Ac(a2-8)Neu5Ac = target: Neu5Ac(a2-8)Neu5Ac
# Method in brief: as §1
# [3] = target: Neu5Ac(a2-8)Neu5Ac(a2-3)Gal(b1-3)GalNAc(b1-4)[Neu5Ac(a2-3)]Gal(b1-4)Glc
# Method in brief: as §1
# [4] = target: Neu5Ac(a2-8)Neu5Ac(a2-3)Gal(b1-3)GalNAc(b1-4)[Neu5Ac(a2-8)Neu5Ac(a2-3)]Gal(b1-4)Glc
# Method in brief: as §1
# [5] = target: Neu5Ac(a2-8)Neu5Ac(a2-3)Gal(b1-4)Glc
# Method in brief: as §1
# [6] = target: Neu5Ac(a2-8)Neu5Ac(a2-3)Gal(b1-4)GlcNAc
# Method in brief: as §1
# [7] = target: Neu5Ac(a2-8)Neu5Ac(a2-3)[Gal(b1-3)GalNAc(b1-4)]Gal(b1-4)Glc
# Method in brief: as §1
# [8] = target: Neu5Ac(a2-8)Neu5Ac(a2-3)[GalNAc(b1-4)]Gal(b1-4)Glc
# Method in brief: as §1
# [9] = target: Neu5Ac(a2-8)Neu5Ac(a2-8)Neu5Ac
# Method in brief: as §1
# [10] = target: Neu5Ac(a2-8)Neu5Ac(a2-8)Neu5Ac(a2-3)Gal(b1-4)Glc
# Method in brief: as §1
# [11] = target: Neu5Ac(a2-8)Neu5Ac(a2-8)Neu5Ac(a2-3)[Gal(b1-3)GalNAc(b1-4)]Gal(b1-4)Glc
# Method in brief: as §1
# [12] = target: Neu5Ac(a2-8)Neu5Ac(a2-8)Neu5Ac(a2-3)[GalNAc(b1-4)]Gal(b1-4)Glc
# Method in brief: as §1
# [13] = target: Neu5Ac(a2-8)Neu5Ac(a2-8)Neu5Ac(a2-8)Neu5Ac(a2-3)[GalNAc(b1-4)]Gal(b1-4)Glc
# Method in brief: as §1
# [14] = target: Neu5Ac(a2-8)Neu5Gc(a2-3)Gal(b1-4)GlcNAc
# Method in brief: as §1
# [15] = target: Neu5Ac(b2-6)Gal(b1-4)GlcNAc
# Method in brief: as §1
# Neu5Ac(b2-6)GalNAc = target: Neu5Ac(b2-6)GalNAc
# Method in brief: as §1
# [16] = target: Neu5Ac9Ac(a2-3)Gal(b1-3)GlcNAc
# Method in brief: as §1
# [17] = target: Neu5Ac9Ac(a2-3)Gal(b1-4)GlcNAc
# Method in brief: as §1
# [18] = target: Neu5Ac9Ac(a2-6)Gal(b1-4)GlcNAc
# Method in brief: as §1
# [19] = target: Neu5Gc(a2-3)Gal(b1-3)GlcNAc
# Method in brief: as §1
# [20] = target: Neu5Gc(a2-3)Gal(b1-3)[Fuc(a1-4)]GlcNAc
# Method in brief: as §1
# Neu5Gc(a2-3)Gal(b1-4)Glc = target: Neu5Gc(a2-3)Gal(b1-4)Glc
# Method in brief: as §1
# [21] = target: Neu5Gc(a2-3)Gal(b1-4)GlcNAc
# Method in brief: as §1
# [22] = target: Neu5Gc(a2-3)Gal(b1-4)GlcNAc(b1-3)Gal(b1-4)GlcNAc(b1-2)Man(a1-3)[Neu5Gc(a2-3)Gal(b1-4)GlcNAc(b1-3)Gal(b1-4)GlcNAc(b1-2)Man(a1-6)]Man(b1-4)GlcNAc(b1-4)GlcNAc
# Method in brief: as §1
# [23] = target: Neu5Gc(a2-3)Gal(b1-4)[Fuc(a1-3)]GlcNAc
# Method in brief: as §1
# [24] = target: Neu5Gc(a2-6)Gal(b1-4)GlcNAc
# Method in brief: as §1
# Neu5Gc(a2-6)GalNAc = target: Neu5Gc(a2-6)GalNAc
# Method in brief: as §1
# [25] = target: Neu5Gc(a2-8)Neu5Ac(a2-3)Gal(b1-4)GlcNAc
# Method in brief: as §1
# [26] = target: Neu5Gc(a2-8)Neu5Gc(a2-3)Gal(b1-4)GlcNAc
# Method in brief: as §1
# [27] = target: Neu5Gc(a2-8)Neu5Gc(a2-3)Gal(b1-4)GlcNAc(b1-3)Gal(b1-4)GlcNAc
# Method in brief: as §1
# [28] = target: Neu5Gc(a2-8)Neu5Gc(a2-6)Gal(b1-4)GlcNAc
# Method in brief: as §1
# [29] = target: Neu5Gc(b2-6)Gal(b1-4)GlcNAc
# Method in brief: as §1
binder,measurement,setting,value
B1,glycan array binding signal (z-score),[1],-0.12
same,glycan array binding signal (z-score),[2],-0.117
same,glycan array binding signal (z-score),Neu5Ac(a2-8)Neu5Ac,-0.112
same,glycan array binding signal (z-score),[3],-0.114
same,glycan array binding signal (z-score),[4],-0.114
same,glycan array binding signal (z-score),[5],-0.119
same,glycan array binding signal (z-score),[6],-0.113
same,glycan array binding signal (z-score),[7],-0.115
same,glycan array binding signal (z-score),[8],-0.109
same,glycan array binding signal (z-score),[9],-0.116
same,glycan array binding signal (z-score),[10],-0.114
same,glycan array binding signal (z-score),[11],-0.112
same,glycan array binding signal (z-score),[12],-0.116
same,glycan array binding signal (z-score),[13],-0.111
same,glycan array binding signal (z-score),[14],-0.005
same,glycan array binding signal (z-score),[15],-0.119
same,glycan array binding signal (z-score),Neu5Ac(b2-6)GalNAc,-0.118
same,glycan array binding signal (z-score),[16],-0.115
same,glycan array binding signal (z-score),[17],-0.114
same,glycan array binding signal (z-score),[18],-0.114
same,glycan array binding signal (z-score),[19],-0.114
same,glycan array binding signal (z-score),[20],-0.114
same,glycan array binding signal (z-score),Neu5Gc(a2-3)Gal(b1-4)Glc,-0.112
same,glycan array binding signal (z-score),[21],-0.115
same,glycan array binding signal (z-score),[22],-0.115
same,glycan array binding signal (z-score),[23],-0.113
same,glycan array binding signal (z-score),[24],-0.116
same,glycan array binding signal (z-score),Neu5Gc(a2-6)GalNAc,-0.114
same,glycan array binding signal (z-score),[25],-0.118
same,glycan array binding signal (z-score),[26],-0.116
same,glycan array binding signal (z-score),[27],-0.114
same,glycan array binding signal (z-score),[28],-0.109
same,glycan array binding signal (z-score),[29],-0.113
